Results taken from publication PMC6919601, “Identification of Plasmodium dipeptidyl aminopeptidase allosteric inhibitors by high throughput screening” (PLoS ONE, 2019).
Several values for one entry are separate records, joined by “and”; a condition that tells them apart may be missing. Equal values may be shown once. Hit rate of the full screen: of about 110,000 compounds, about 230 (0.21%) showed an effect of 50% or more. The list shows a part of the results.

What follows are molecules tested against DPAP1 (Plasmodium falciparum, UniProt Q8IIJ9) (assay: primary screen, percent inhibition; read by cleavage of a fluorogenic dipeptide substrate; higher = more effect of the substance).
Sequence of DPAP1 (Q8IIJ9 whole entry, looked up): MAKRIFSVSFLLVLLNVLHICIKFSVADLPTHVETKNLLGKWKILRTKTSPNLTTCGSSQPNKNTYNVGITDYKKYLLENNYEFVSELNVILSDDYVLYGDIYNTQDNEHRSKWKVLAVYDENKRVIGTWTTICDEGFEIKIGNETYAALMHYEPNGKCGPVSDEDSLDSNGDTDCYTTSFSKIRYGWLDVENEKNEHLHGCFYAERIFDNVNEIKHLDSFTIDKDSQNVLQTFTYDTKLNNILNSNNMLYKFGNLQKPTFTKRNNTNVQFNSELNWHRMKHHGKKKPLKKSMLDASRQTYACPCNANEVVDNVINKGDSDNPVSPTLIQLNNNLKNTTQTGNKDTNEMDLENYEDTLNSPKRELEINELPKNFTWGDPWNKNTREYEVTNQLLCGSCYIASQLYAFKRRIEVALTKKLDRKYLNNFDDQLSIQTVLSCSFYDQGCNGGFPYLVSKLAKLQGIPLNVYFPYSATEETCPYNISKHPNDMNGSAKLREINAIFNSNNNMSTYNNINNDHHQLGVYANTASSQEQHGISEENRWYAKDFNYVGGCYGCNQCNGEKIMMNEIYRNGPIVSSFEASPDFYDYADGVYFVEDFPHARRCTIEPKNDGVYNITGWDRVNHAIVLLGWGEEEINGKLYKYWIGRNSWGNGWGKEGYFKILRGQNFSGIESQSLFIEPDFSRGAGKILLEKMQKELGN
Set-up: species or system P. falciparum D10 trophozoite lysates; single well
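Further: 30 min substrate incubation versus DMSO and 10 µM JCP410 controls.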

Compound	% Inhibition @ 10 uM
Cc1cc(C)c(C)c(C2C(C#N)=C(N)SC(N)=C2C#N)c1C	4.22%
COc1ccc(C2C(C(=O)N3CCCCCC3)c3cc(OC)c(OC)cc3C(=O)N2C)cc1OC (centres unmarked)	-3.78%
Cc1noc(/C=C/N(C)C)c1S(=O)(=O)N1CCC(C)CC1	6.11%
Cc1c(C(=O)N2CCOCC2)oc2c1-c1nn(CC(=O)NC3CCCC(C)C3C)cc1CC2 (centres unmarked)	1.17%
COCCN1C(=O)c2[nH]nc(-c3cc(C)ccc3O)c2C1c1ccc(F)cc1 (centres unmarked)	3.81%
CCOc1ccc(CCNC(=O)c2ccc(CS(=O)(=O)Cc3ccc(F)cc3)o2)cc1OCC	-2.72%
Cc1ccc(CNC(=O)CSc2nc3ccsc3c(=O)n2C2CC2)cc1	-1.85%
COc1ccc(-c2cc(-c3ccc(C)cc3)[nH]n2)c(O)c1	0.528%
CCCCN1CN(CCc2ccccc2)CC2=C1CC(C)(C)CC2=O	-1.52%
COc1ccccc1S(=O)(=O)Cc1ccc(C(=O)NCCCN2CCCC2=O)o1	-4.96%
COC(=O)c1ccc(NC(=O)C2CC3CCC2C3)cc1 (centres unmarked)	-4.15%
CCCCN(CC)C(=O)c1cnc2ccc(S(=O)(=O)N(CC)CC)cc2c1O	1.16%
CCOC(=O)C(=Cc1ccc(-c2ccc(OC)cc2)o1)C(=O)OCC	1.67%
N#Cc1ccc(CSc2nc3ncccc3c(=O)n2Cc2ccccc2)cc1	-3.44%
CCCCN(CCCC)C(=O)CSc1nnc(-c2ccc(C)cc2)o1	3.34%
CCOC(=O)c1c(-c2ccc(Cl)cc2)nn2c1NCN(Cc1ccccc1)C2	-2.88%
CC(=O)c1c(O)cc(C)n(Cc2ccccc2)c1=O	1.74%
CCC(Sc1nc2nnc(C)c-2c(N)n1-c1ccc(OC)cc1)C(=O)N1CCC(C)CC1 (centres unmarked)	-7.66%
COc1ccc(/C=C2\S/C(=N/c3ccc(C(=O)O)cc3)N(C)C2=O)cc1C	0.812%
COc1ccccc1CCNCc1c(C(=O)O)n(Cc2ccccc2F)c2cc(C)ccc12	-8.25%
CCOc1ccc(S(=O)(=O)N2CCN=C2Cc2ccccc2)cc1C	-0.0678%
CS(=O)(=O)C1=NN2C(=N)/C(=C\c3ccc(OCc4ccccc4)c(Cl)c3)C(=O)N=C2S1	3.53%
Cn1c(COc2cccc3cccnc23)nnc1SCC(N)=O	5.32%
COC(=O)C1=C(C)/C(=C(\O)OC)C(C)=NC1c1c(O)ccc2ccccc12 (centres unmarked)	7.93%
CCCCNC(=O)CCc1nc(-c2ccc(Cl)cc2)no1	2.02%

Compound	% Inhibition @ 10 uM
CC(C)(C)c1cc(C(=O)NCCCN2CCOCC2)cc(C(C)(C)C)c1	3.9%
CN1CCn2c1nc(N1CCOCC1)nc2=O	1.25%
CCC(C)Nc1nc(NC)nc(NC(C)CC)n1 (centres unmarked)	2.62%
CCN1CCN(Cc2cc(OC)c(O)c(OC)c2)CC1	-2.56%
CC1(C)Nc2ccccc2N(Cc2ccccc2)C1=O	-0.865%
C=C1c2cc(C)ccc2NC(=O)N1c1ccccc1	-7.31%
CC1CC(C)CN(C(=O)Cn2ncc3c4ccccc4n(Cc4ccccc4F)c3c2=O)C1 (centres unmarked)	-9.07%
CCOC(=O)c1ccc(-n2c(CCC(=O)O)ccc2-c2ccc(F)cc2)cc1	-2.14%
CN1CCN(C(=O)c2cc(-c3ccco3)on2)CC1	0.0221%
COc1cc(NC(=O)C2CCN(S(=O)(=O)c3ccc4c(c3)nc(C)n4C3CCCC3)CC2)ncn1	-0.0309%
Cc1cccc(-n2nnnc2S)c1	30%
CC1CCC(C(C)C)C(=O)/C1=C\c1ccc(N)cc1 (centres unmarked)	3.82%
CC1=CC2=NC(=O)/C(=C\c3c[nH]c4ccccc34)C(=N)N2O1	-1.43%
CN(C)c1ccc(C2C(C#N)=C(N)N(c3ccc(Br)cn3)C3=C2C(=O)CC(C)(C)C3)cc1 (centres unmarked)	0.343%
COc1ccc(C(=O)c2oc3ccccc3c2NC(=O)Cc2ccccc2)cc1	-1.11%
O=C(Nc1ccccc1C(F)(F)F)c1ccc(OC(F)F)cc1	-2.85%
CC1CCCCN1S(=O)(=O)c1cccc2nonc12 (centres unmarked)	1.04%
CCOC(=O)C1=C(CSc2nc(N)cc(O)n2)NC(=O)NC1c1ccc2c(c1)OCO2 (centres unmarked)	2.99%
Cc1ccc(NC(=O)CN(c2ccc(C(C)C)cc2)S(C)(=O)=O)cc1C	-2.44%
O=S(=O)(N1CCOCC1)N1CCCN(S(=O)(=O)N2CCOCC2)CC1	1.51%
Cc1ccc(S(=O)(=O)n2nc(-c3ccccc3)nc2N)cc1	-8.41%
COc1cc(C2/C(=C(\O)OC(C)C)C(C)=Nc3ncnn32)cc(OC)c1OC (centres unmarked)	3.87%
COc1cccc(C2CC(c3cccc(OC)c3OC)n3ncnc3N2)c1 (centres unmarked)	0.0842%
CCN1CCN(c2ccc(NC(=O)c3ccc(C#N)cc3F)cc2)CC1	5.99%
CCOc1ccc(-n2c(C)nc3cc(C(=O)NCCOC)ccc32)cc1	-3.93%

Compound	% Inhibition @ 10 uM
Cc1cc(C(=O)NCCN(CC(C)C)CC(C)C)n(-c2ccccc2)n1	-3.7%
O=C(O)COc1ccc(/C=C2\SC(Nc3cccc(C(F)(F)F)c3)=NC2=O)cc1	6.98%
COc1ccc(Br)cc1CN1CCN(c2ccccc2F)CC1	-5.41%
Cc1ccnc(NC(=O)CCc2nnc3ccc(N4CCN(C)CC4)nn23)c1	-4.66%
O=S(=O)(Nc1ccc(NS(=O)(=O)c2cccs2)cc1)c1cccs1	-1.64%
Cn1nc(C(=O)NCCOC23CC4CC(C)(CC(C)(C4)C2)C3)c2c1-c1ccccc1OC2	3.3%
C/C(=N\O)c1ccc(C2CCCCC2)cc1	-0.128%
Cc1ccc(CC2CC(=O)N(c3ccncc3)C2=O)cc1 (centres unmarked)	3.73%
Oc1c2cc(F)ccc2nc2ncccc12	1.74%
O=C(NCc1ccc2c(c1)OCO2)C1CCCN(c2nc3ccccc3n3cccc23)C1 (centres unmarked)	2.07%
COc1ccc(-c2cc(C(F)(F)F)nc(S(=O)(=O)CCC(=O)Nc3cc(C)on3)n2)cc1	44.2%
CCCCOC(=O)C1=C(C)NC(=O)NC1c1cc(Cl)cc(Cl)c1OC (centres unmarked)	-2.87%
COc1ccc(NC(=O)CN(C)S(=O)(=O)c2ccc(Cl)cc2)c(OC)c1	-3.45%
CC1CN(C(=O)c2ccc(COc3ccc(C(C)C)cc3)o2)CC(C)O1 (centres unmarked)	0.413%
CC(C)OP(=O)(OC(C)C)C(Nc1ccccc1)c1ccccc1O (centres unmarked)	0.937%
C=C(C)CN1CCN(c2cc(C)c(C#N)c3nc4ccccc4n23)CC1	-1.93%
COc1ccc(N2CCN(C(=O)CN(C3CCCCC3)S(C)(=O)=O)CC2)cc1	1.17%
COCCCNC(=O)CNS(=O)(=O)c1ccc2nc(C)sc2c1	-2.45%
c1coc(CCC2=NCCn3cccc32)c1	3.16%
CCN(CC)CCCNC(=O)c1ccc(C)cc1	0.214%
Cc1ccsc1CN(CCCN(C)C)CCCN(C)C	-1.5%
Cc1cc(OCC(=O)Nc2ccc(O)cc2C(=O)O)cc(C)c1Cl	-1.82%
COc1ccc(OC)c2c(C)cc(N3CCN(c4cc(C)ccc4C)CC3)nc12	-7.5%
CCOC(=O)C1CCN(C2CCN(Cc3ccccc3)CC2)CC1	-2.95%
CCN(CC)c1ccc(CN2CCCC(O)C2)cc1 (centres unmarked)	0.472%

Compound	% Inhibition @ 10 uM
COC(=O)c1cc(S(=O)(=O)N(C)C2CCCCC2)c[nH]1	9.77%
Cc1ccc(-n2ncc(C(=O)Nc3nccs3)c2C2CCN(C(=O)OC(C)(C)C)CC2)cc1	1.58%
COCCN1C(=O)c2ccccc2C(C(=O)Nc2ccccn2)C1c1cn(C)c2ccccc12 (centres unmarked)	2.97%
C=C(C)C1CC=C(C)C(O)(CSc2nccn2C)C1 (centres unmarked)	4.01%
N#C/C(=C\c1c(Oc2ccccc2Cl)nc2ccccn2c1=O)C(=O)NC1CCS(=O)(=O)C1 (centres unmarked)	-8.55%
Cc1ccccc1/C=C/c1nn2c(-c3cccnc3)nnc2s1	-1.31%
COC(=O)CCC(=O)c1cc(C(C)(C)C)sc1C(C)(C)C	-3.55%
Nc1ccccc1C(=O)N1CCN(c2cccc(Cl)c2)CC1	-0.318%
COc1ccc(NC(=O)c2cccc3ccccc23)cc1OC	3.53%
Cc1[nH]c2ccccc2c1CCNC(=O)COc1ccc(F)cc1	1.93%
CCc1nn(CC(=O)NCc2ccco2)c(=O)c2cc3ccccc3n12	-3.79%
COc1ccc(Cl)cc1N(CC(=O)Nc1cc(C)ccc1C)S(C)(=O)=O	1.92% and 2.08%
CCOc1c(Br)cc(C2C(C(=O)OC)=CN(C(C)C)C=C2C(=O)OC)cc1OC	6.48%
Clc1cccc(-c2nn3cnnc3s2)c1	2.29%
Cc1nc2c(=O)oc3ccccc3c2o1	-4.47%
CCC(C(=O)N1CCCCC1)n1c2ccccc2c2cnnc(O)c21 (centres unmarked)	-0.281%
C=CCOc1ccc(C2c3c(oc4ccc(C)cc4c3=O)C(=O)N2CCCN(C)C)cc1OCC (centres unmarked)	-2.91%
O=C(NCc1ccccc1)N1CCC2(CC1)Oc1ccccc1C(=O)N2Cc1ccc(F)cc1	-4.68%
COc1cccc(OC)c1C(=O)n1nnc2ccccc21	-1.03%
CN(C(=O)Cn1c(=O)n(CC(=O)NCCc2ccccc2)c(=O)c2sccc21)C1CCCCC1	-2.47%
Cc1cc([N+](=O)[O-])ccc1NC(=O)c1ccc([N+](=O)[O-])cc1	-5.65%
Cn1c(=O)c2c(nc(Sc3ncn(Cc4ccccc4Br)n3)n2C)n(C)c1=O	-2.54%
O=C1c2ccccc2C(Nc2cccnc2)N1Cc1ccccc1Cl (centres unmarked)	-2.83%
